{"source": "patent US7005419", "about": "(US Dept. of Health and Human Services, dated 2006)", "biological_target": "T1, Cdc2 (human, UniProt P06493)", "T1 construct": "Endogenous cellular protein; also called cellular Cdc2; Cdc2 polypeptide", "assay": "GST pull-down from RKO cell lysate, anti-Cdc2 immunoblot"}
{"binder": "GST alone (other, Negative control, linked to Sepharose beads) not shown", "values": [{"measurement": "binding result", "value": "no binding (tested: 100 ng)"}]}
